# Assay results as given in PubChem BioAssay AID488969 (Vanderbilt High Throughput Screening Facility, 2010).
# The full ranking holds about 110,000 compounds; the median of “z-score” is about -0.1, and the highest 2% start at about 2. Some of the results follow. The source made the active and inactive calls.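 Rule for the calls: active = z-score in the third read window above 3 or below -3; inactive = the rest.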
# Target: Metabotropic glutamate receptor 8 (Rattus norvegicus) (UniProt P70579)
# Experiment: mGluR8 Gi/Go-coupled signaling modulation – cell-based, rat, thallium flux, HTS, primary screen (AID 488969)
# Settings: HEK293 rat mGluR8, GIRK (G protein-gated inwardly rectifying potassium channel) thallium flux, FluoZin2; at 10 µM; stronger effect = higher value; submaximal glutamate (EC20) added with thallium
# Chain of UniProt P70579 (P70579 whole entry, looked up): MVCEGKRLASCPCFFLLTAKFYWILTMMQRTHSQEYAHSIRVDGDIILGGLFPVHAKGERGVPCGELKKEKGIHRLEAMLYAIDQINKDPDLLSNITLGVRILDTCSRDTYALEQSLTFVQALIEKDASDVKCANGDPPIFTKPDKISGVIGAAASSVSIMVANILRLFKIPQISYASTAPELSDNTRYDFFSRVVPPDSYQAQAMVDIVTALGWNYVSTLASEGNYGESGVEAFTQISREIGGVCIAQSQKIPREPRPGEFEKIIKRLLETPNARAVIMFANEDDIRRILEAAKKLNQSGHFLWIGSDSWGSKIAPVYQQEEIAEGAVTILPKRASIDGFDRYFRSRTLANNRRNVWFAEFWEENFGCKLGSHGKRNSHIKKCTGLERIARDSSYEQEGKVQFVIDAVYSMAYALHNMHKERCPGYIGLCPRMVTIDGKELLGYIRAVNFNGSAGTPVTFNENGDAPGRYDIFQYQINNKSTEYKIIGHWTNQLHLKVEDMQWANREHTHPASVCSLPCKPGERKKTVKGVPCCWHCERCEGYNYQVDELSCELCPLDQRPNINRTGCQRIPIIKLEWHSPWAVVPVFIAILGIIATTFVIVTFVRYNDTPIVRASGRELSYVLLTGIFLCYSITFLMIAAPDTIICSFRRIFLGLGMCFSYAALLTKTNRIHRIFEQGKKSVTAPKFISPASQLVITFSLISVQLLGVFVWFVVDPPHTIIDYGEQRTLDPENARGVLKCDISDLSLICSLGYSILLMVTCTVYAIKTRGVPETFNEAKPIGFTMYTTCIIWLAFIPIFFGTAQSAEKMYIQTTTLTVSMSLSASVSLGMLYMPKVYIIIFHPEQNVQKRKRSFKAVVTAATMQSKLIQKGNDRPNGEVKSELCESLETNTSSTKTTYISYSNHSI
row,SMILES,z-score
1,Cc1ccccc1NC(=O)Cn1cnc2c1c(=O)n(C)c(=O)n2C,0.132
2,CC(C)(C)c1cc(NC(=O)CSc2nncs2)n(-c2ccccc2)n1,-0.0332
3,O=c1oc(-c2ccccc2)nc2sc3c(c12)CCCC3,0.445
4,Cc1ccc(C)c2c(SC(C)C(=O)NCc3ccco3)nc(-c3ccccc3)nc12 (centres undefined),0.598
5,c1ccc(COc2ccccc2CNCc2cccnc2)cc1,-0.188
6,COc1ccc(C(=O)NN)cc1COc1ccc(Br)cc1,0.0387
7,CCOC(=O)CSc1nc2c(sc(=S)n2Cc2ccco2)c(=O)n1-c1ccccc1,-0.492
8,O=C(Cn1nnc2ccccc21)N1CCCCC1,-0.0475
9,CCOC(=O)c1[nH]cnc1C(=O)NC1CCCCC1,-0.225
10,CCOC(=O)CSc1nnc(-c2cccc(Br)c2)o1,-0.186
11,CCOC(=O)COc1ccccc1-c1ccno1,-0.0953
12,COc1cc(C=O)ccc1OCCCCOc1ccccc1[N+](=O)[O-],-0.729
13,S=C(c1ccc(-c2cc(Cl)ccc2Cl)o1)N1CCCCC1,-0.0149
14,Cc1ccc(SCc2cc(=O)[nH]c(Nc3nc(C)c4cccc(C)c4n3)n2)cc1,-0.479
15,CCn1c(C)cc(/C=C2/NC(=O)N(CC(=O)Nc3cccc(C)c3)C2=O)c1C,-0.416
16,CC1(C)N=C(N)NC(Nc2cccc(Br)c2)=N1,0.821
17,NC(=O)C1(S(=O)(=O)c2ccccc2)CCCCC1,0.127
18,O=C(Nc1cccc(Br)c1)c1ccc(CSc2ccccc2)cc1,-0.279
19,Cc1cc2nc(-c3cccc(NC(=O)c4ccc(Br)o4)c3)oc2cc1C,-0.467
20,COC(=O)C1=C(NC(=O)c2ccc(C)c(C)c2)CCS1,0.579
21,COc1ccc(CCn2c(N)c(S(=O)(=O)c3cccs3)c3nc4ccccc4nc32)cc1OC,-0.349
22,Cc1ccccc1C(=O)Nc1nc(=S)ss1,2.56
23,COC(=O)C(C)NC(=O)C(C)NC(=O)OCc1ccccc1 (centres undefined),-0.0538

row,SMILES,z-score
1,O=C(Cn1c(COc2ccccc2)nc2ccccc21)Nc1cc(Cl)ccc1Cl,-0.284
2,C=C(C)Cn1c(SCC(=O)N/N=C/c2cccc(O)c2)nc2ccccc2c1=O,-0.962
3,O=c1[nH]c2cc3c(cc2cc1C(c1nnnn1Cc1ccccc1)N1CCCCCC1)OCCO3 (centres undefined),-0.315
4,CC(C)NS(=O)(=O)c1ccc(NC(=O)CCc2ccccc2)cc1,-0.304
5,O=C(CN1CCOCC1)Nc1ccccc1Cl,0.214
6,CSc1ccc(Cn2nnc(C(=O)NCc3ccccc3)c2N)cc1,-0.439
7,COc1ccc(CC(=O)N2CCC(Nc3nc4ccccc4n3Cc3ccc(F)cc3)CC2)cc1,-0.087
8,Cc1ccc(NC(=O)N2CCC(C(=O)NCc3ccccc3)CC2)cc1,-0.545
9,CCC1S/C(=C(\C#N)C(=O)NCc2ccco2)N(c2ccc(Br)cc2)C1=O (centres undefined),-0.137
10,Cc1cc(NS(=O)(=O)c2ccc(NC(=O)COc3ccccc3Cl)cc2)no1,0.0472
11,N#CC1=C(N)C(C#N)(C#N)C(c2ccncc2)C2CN(C(=O)OCc3ccccc3)CC=C12 (centres undefined),-1.7
12,CCCOC(=O)c1ccc(NC(=O)c2cn(CC)c3nc(C)ccc3c2=O)cc1,-0.0515
13,COC(=O)c1cc(OC)c(OC)cc1NC(=S)N1CCN(c2ccccc2)CC1,0.413
14,O=c1oc2ccccc2cc1NCc1ccccc1O,-0.317
15,O=C(NCC1CCCO1)c1cc(-c2ccccc2)on1 (centres undefined),0.0734
16,NS(=O)(=O)c1ccc(NC(=O)Cn2ncc3c2-c2ccccc2OC3)cc1,-0.00479
17,OC1CCCN(Cc2ccccc2)C1 (centres undefined),-0.193
18,COc1cc(NC(=O)COC(=O)CNS(=O)(=O)c2ccc(F)c(F)c2F)cc(OC)c1,-0.336
19,CC(C)(C)c1nc(SCC(=O)NCc2ccco2)c2ccccc2n1,-0.748
20,CCSc1nc2c(c(=O)[nH]1)C(C(C)C)C(C#N)=C(N)O2 (centres undefined),-0.27
21,Cc1cc(O)cc(O)c1C=NCc1ccco1,-0.521
22,CCOC(=O)N1CCN(c2ccccc2O)CC1,-0.0312
23,COc1ccc(N2CCN(C(=O)CC(NC(N)=O)c3cccc(Oc4ccccc4)c3)CC2)cc1 (centres undefined),-0.0409

row,SMILES,z-score
1,CSc1ccc(/C=N\NC(=O)COc2ccc(Cl)cc2Br)cc1,-0.285
2,Cc1noc(C)c1S(=O)(=O)N(CC(=O)NCc1ccc(Cl)cc1)c1ccc2c(c1)OCO2,-0.098
3,N[C@@H](Cc1ccccc1)c1nnc(SCc2ccccc2Cl)o1,-0.0808
4,O=C(O)CCc1ccc(-c2cccs2)n1Cc1ccco1,0.499
5,CCN1CCN(c2cc(C(C)(C)C)nc3c(-c4ccccc4)c(C)nn23)CC1,-0.0918
6,COc1ccc(-c2cc(N)n(S(=O)(=O)c3ccc(F)cc3)n2)cc1OC,-0.473
7,CCOc1ccc(NC(=O)Nc2cc(-c3ccccc3)sc2C(=O)OC)cc1,-0.0844
8,CCc1nnc(NC(=O)CSc2nccn2-c2cccc(C)c2C)s1,-0.448
9,Cc1ccc(-n2c(SCC(=O)OC(C)C)nnc2-c2cnccn2)cc1,0.00862
10,O=C1c2ccccc2C(Nc2ccc3c(c2)OCO3)N1Cc1ccco1 (centres undefined),0.00476
11,O=C(NCCc1ccncc1)C12CC3CC(CC(C3)C1)C2,0.467
12,C=CCn1c(SCCC(=O)O)nc2c1c(=O)n(C)c(=O)n2C,-0.231
13,O=C(c1cc2c(ccc3ccccc32)o1)N1CCN(c2ncc(C(F)(F)F)cc2Cl)CC1,-0.108
14,C/C(Cl)=C\Cn1c(Nc2ccccc2)nc2c1c(=O)n(C)c(=O)n2C,-0.66
15,CC(C)CNc1nc2c(c(=O)n(C)c(=O)n2C)n1Cc1cccc(Br)c1,-0.146
16,CCOC(=O)c1c(NC(C)=O)sc2c1C1CCN2CC1,0.0192
17,COC(=O)CC1C(=O)NCCN1C(=O)CSc1nnc(Nc2ccc(C)cc2)s1 (centres undefined),-0.0968
18,O=C(Nc1nnc(C2CC2)s1)c1ccccn1,0.416
19,O=C(CN1CCN(S(=O)(=O)c2ccc(Br)cc2)CC1)Nc1ccccc1C(=O)c1ccccc1,-0.75
20,COc1cccc(OCCOCCOc2ccc(C)cc2[N+](=O)[O-])c1,-0.112
21,COc1cccc(/C=C2\SC(=O)N(CCC(=O)NNC(=O)c3cccc(Cl)c3)C2=O)c1,-0.707
22,Cc1nnnn1-c1cccc(C(=O)O)c1,-0.273
23,Cn1c(/N=C/c2cc(Cl)ccc2O)nc2ccccc21,-0.564

row,SMILES,z-score
1,COCCCn1c(CCC(=O)O)ccc1-c1cccs1,-0.132
2,NC(=O)c1nn(-c2ccccc2)c(=O)cc1O,-0.332
3,CCCCC(=O)Nc1ccc(C(=O)Nc2cccnc2)cc1,0.0123
4,CCOc1ccc(C)cc1S(=O)(=O)NC1CCCCC1,-0.31
5,Cc1ccc(S(=O)(=O)N/N=c2\oc3ccccc3cc2C(=O)Nc2cccc(C)c2)cc1,-0.247
6,CCN(CC)c1ccc(/C=N/NC(=O)c2c(Cl)cnn2C)c(O)c1,-0.49
7,CCN(CC)CCCN1C(=O)C(O)=C(C(=O)c2ccco2)C1c1ccc(OC(C)C)cc1 (centres undefined),-0.35
8,NC(=S)Nc1cccc2cccnc12,0.156
9,CCOC(Cn1c(CCCO)nc2ccccc21)OCC,-0.5
10,Oc1cccc(/C=N/c2c(-c3ccco3)nc3ccccn23)c1,0.026
11,FC(F)(F)c1cnc(Sc2nc3nccc(-c4ccc(Cl)cc4)n3n2)c(Cl)c1,-0.6
12,CC1CCN(C(=O)CCc2ccc(S(=O)(=O)NC(C)(C)C)cc2)CC1,0.209
13,CC(C)c1nc(=S)n(-c2ccccc2)[nH]1,active: 4.41
14,COC(=O)/C(=C\c1ccc([N+](=O)[O-])o1)NC(=O)c1ccccc1,-0.168
15,Cc1ccc(NC(=O)CCC(=O)NNC(=O)c2cccs2)cc1C,-0.0709
16,COc1cccc(-n2nc3c(=S)[nH]nc(C)c3c2C)c1,0.0943
17,COc1ccc(Nc2nc(-c3sc(N)nc3C)cs2)cc1,0.175
18,COC(=O)c1cc(Cl)c(NC(=O)c2cc(OC)c(OC)c(OC)c2)cc1OC,-0.179
19,CCOC(=O)c1nn(C23CC4CC(CC(C4)C2)C3)c2c1C(=O)N(c1ccc(C)cc1)C2=O,-0.0256
20,O=C(Nc1sc2c(c1CN1CCOCC1)CCC2)c1ccc(F)cc1,-0.457
21,CC(C)Oc1ccc(CNCCC2(C(C)C)CCOC(C)(C)C2)cc1 (centres undefined),0.314
22,Cc1nc2c(C)cccn2c1C(=O)c1ccccc1,-0.3
23,CN(C)CCCNCC(=O)Nc1ccccc1N1CCOCC1,0.116

row,SMILES,z-score
1,CC(C)(C)NC(=O)Cn1c(=O)c(=O)n(Cc2ccccc2)c2ccc(Cl)cc21,-0.366
2,Cc1nn(-c2ccccc2)c(C)c1C(=O)NCc1cccs1,-0.127
3,COc1cccc(NC(=O)CN(C)C(=O)c2ccc3ccccc3c2)c1,-0.156
4,c1ccc(CC2CCN(c3nnnn3-c3ccccc3)CC2)cc1,0.193
5,C=CCN(c1cccc(C(F)(F)F)c1)S(=O)(=O)c1cccc(C(=O)OCC(=O)NCCC)c1,-0.367
6,O=C(NCC(=O)N(Cc1cccs1)C(C(=O)NC1CCCCC1)c1ccco1)c1ccco1 (centres undefined),2.96
7,O=C(O)Cc1c(O)ccc2ccccc12,-0.0548
8,O=C(O)c1ccc(-c2nc3ccccc3[nH]2)cc1,-0.221
9,CN(C(=O)c1cccc(C#N)c1)c1nnc(-c2cnccn2)s1,-1.04
10,CSc1nc(C)c(Oc2ccccc2)c(=O)n1C,-0.388
11,O=C(Cn1c(-c2cncs2)nc2ccccc21)NCc1ccccc1,0.385
12,Cn1c(=O)c2c(ncn2CC(N)=O)n(C)c1=O,-1.29
13,COc1ccc(N=Nc2nc(-c3ccccc3)c(-c3ccccc3)[nH]2)cc1,-0.365
14,O=C(Nc1cccc2ncccc12)C12CC3CC(CC(C3)C1)C2,-0.203
15,COc1ccc(C2=NOC(C(=O)NCC(C)C)C2)cc1 (centres undefined),-0.398
16,Cc1cc(Oc2ccc(C#N)cc2)nc(N2CCOCC2)n1,-0.0236
17,Cc1onc(-c2ccccc2)c1C(=O)Nc1ccc(N2CCOCC2)cc1,-0.074
18,CCOC(=O)C1(C(F)(F)F)N=C(N(C)C)OC(N(C)C)=N1,-0.192
19,CC(=O)Nc1cc(NC(C)=O)cc(C(=O)NC(C)(C)C)c1,-0.383
20,COc1ccc(C(=O)n2nc(-c3ccccc3)nc2SC)cc1,-0.0105
21,COc1ccc(OCCC(=O)N2CCCCC2)cc1,-0.155
22,O=C1c2ccccc2NC(c2ccc(-c3ccc(Br)cc3)o2)N1O (centres undefined),active: 3.36
